Literature values in patent publication US20060142251A1, “Anti-microbial agents derived from methionine sulfoximine analogues” (priority 2002, published 2006).

Target: mycobacterial glutamine synthetase (MbGS) (Mycobacterium tuberculosis, UniProt P9WN39)
Settings: cited from earlier work

mycobacterial glutamine synthetase (MbGS), sequence (P9WN39 2-478 limits assumed): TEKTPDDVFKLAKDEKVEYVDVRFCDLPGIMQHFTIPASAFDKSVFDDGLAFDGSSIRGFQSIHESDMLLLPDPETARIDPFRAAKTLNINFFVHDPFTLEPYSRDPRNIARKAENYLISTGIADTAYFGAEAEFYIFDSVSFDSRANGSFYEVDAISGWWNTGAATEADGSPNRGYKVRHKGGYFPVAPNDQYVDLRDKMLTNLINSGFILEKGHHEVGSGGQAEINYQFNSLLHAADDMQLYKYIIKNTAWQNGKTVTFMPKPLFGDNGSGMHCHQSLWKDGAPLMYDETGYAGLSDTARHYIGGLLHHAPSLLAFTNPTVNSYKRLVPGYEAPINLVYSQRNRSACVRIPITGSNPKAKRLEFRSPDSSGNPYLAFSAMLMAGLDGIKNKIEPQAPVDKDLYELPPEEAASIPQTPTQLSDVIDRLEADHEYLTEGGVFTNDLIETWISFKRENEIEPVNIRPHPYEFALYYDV

CS(=N)(=O)CC[C@H](N)C(=O)O (stereo partly drawn) [MSO, L-methionine-SR-sulfoximine]
greater sensitivity to MSO of bacterial GS compared with mammalian GS: 100 fold
